Patent publication US20210054071A1 (NANJING LEGEND BIOTECH, published 2021)

T1: TIGIT on TIGIT effector cells (UniProt Q495A1 22-244, limits assumed)
T1 sequence (looked up): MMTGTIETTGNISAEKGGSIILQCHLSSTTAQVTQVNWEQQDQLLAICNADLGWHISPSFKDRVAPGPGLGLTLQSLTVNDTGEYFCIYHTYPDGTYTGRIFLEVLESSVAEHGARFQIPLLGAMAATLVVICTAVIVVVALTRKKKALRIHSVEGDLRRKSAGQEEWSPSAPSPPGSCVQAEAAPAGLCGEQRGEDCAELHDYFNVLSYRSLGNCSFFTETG

T2: mouse TIGIT-His protein (Acrobiosystems) (mouse, UniProt P86176 29-148, limits assumed)
T2 construct: bought
T2 sequence (looked up): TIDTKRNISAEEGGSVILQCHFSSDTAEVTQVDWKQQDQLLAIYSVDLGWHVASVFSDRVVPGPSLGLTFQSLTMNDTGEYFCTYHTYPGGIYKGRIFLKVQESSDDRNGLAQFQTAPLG

T3: human TIGIT-His protein (Acrobiosystems) (human, UniProt Q495A1 22-141)
T3 construct: Bought; Genbank NP_776160
T3 sequence: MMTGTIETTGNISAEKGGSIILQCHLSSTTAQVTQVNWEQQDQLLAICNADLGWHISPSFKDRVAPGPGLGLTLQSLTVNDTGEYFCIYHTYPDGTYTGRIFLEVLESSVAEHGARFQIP

T4: human TIGIT expressed on CHO-K1 cells (human, UniProt Q495A1 22-244)
T4 construct: also called CHO/human TIGIT cells; CHO-TIGIT cells
T4 sequence: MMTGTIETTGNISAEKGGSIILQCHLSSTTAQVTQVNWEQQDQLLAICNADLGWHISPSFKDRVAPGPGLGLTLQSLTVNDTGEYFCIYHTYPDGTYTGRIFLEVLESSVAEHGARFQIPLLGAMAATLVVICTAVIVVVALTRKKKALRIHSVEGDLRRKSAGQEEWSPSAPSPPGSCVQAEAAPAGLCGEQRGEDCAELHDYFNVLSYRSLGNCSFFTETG


Key:
[1] = molecular target: T1, TIGIT on TIGIT effector cells; experiment: cell-based or functional assay
[2] = molecular target: T2, mouse TIGIT-His protein (Acrobiosystems); experiment: SPR as in Example 2
[3] = molecular target: T3, human TIGIT-His protein (Acrobiosystems); experiment: SPR as in Example 2
[4] = molecular target: T4, human TIGIT expressed on CHO-K1 cells; experiment: FACS, CHO-K1 cells expressing human TIGIT
[5] = molecular target: T1, TIGIT on TIGIT effector cells; experiment: cell-based or functional assay; remark: listed apart in the source
[6] = molecular target: T5, cynomolgus TIGIT-His protein (Acrobiosystems) (cynomolgus, UniProt A0A7N9I9V4 89-209); experiment: SPR (BIAcore T200), target amine-coupled to CM5 chip
T5 construct: bought

[7] = molecular target: T3, human TIGIT-His protein (Acrobiosystems); experiment: as above
[8] = molecular target: T4, human TIGIT expressed on CHO-K1 cells; experiment: FACS competition, biotinylated CD155-Fc on CHO/human TIGIT cells
[9] = molecular target: T6, cynomolgus TIGIT expressed on CHO-K1 cells (cynomolgus, UniProt A0A7N9I9V4 89-312); experiment: FACS, CHO-K1 cells expressing cynomolgus TIGIT
T6 construct: whole, on cells

[10] = molecular target: T5, cynomolgus TIGIT-His protein …; experiment: SPR (BIAcore T200), target amine-coupled to CM5 chip; remark: listed apart in the source
[11] = molecular target: T3, human TIGIT-His protein (Acrobiosystems); experiment: as above; remark: listed apart in the source
[12] = molecular target: T4, human TIGIT expressed on CHO-K1 cells; experiment: FACS competition, biotinylated CD155-Fc on CHO/human TIGIT cells; remark: listed apart in the source
[13] = molecular target: T6, cynomolgus TIGIT expressed on CHO-K1 …; experiment: FACS, CHO-K1 cells expressing cynomolgus TIGIT; remark: listed apart in the source
[14] = molecular target: T1, TIGIT on TIGIT effector cells; experiment: cell-based or functional assay; remark: listed apart in the source
[15] = molecular target: T4, human TIGIT expressed on CHO-K1 cells; experiment: FACS, CHO-K1 cells expressing human TIGIT; remark: listed apart in the source
[16] = molecular target: T2, mouse TIGIT-His protein (Acrobiosystems); experiment: SPR (BIAcore T200), target amine-coupled to CM5 chip

Row | Binder | TIGIT Reporter assay EC50 [1] [nM] | Kd [2] [nM] | Kd [3] [nM] | EC50 [4] [nM] | TIGIT/CD155 blockade reporter assay, EC50 [5] [nM] | TIGIT/CD155 blockade reporter assay, Signal span [5] | Kd [6] [nM] | koff [6] [s⁻¹] | kon [6] [M⁻¹ s⁻¹] | Kd [10] [nM] | koff [10] [s⁻¹] | kon [10] [M⁻¹ s⁻¹] | Kd [11] [nM] | koff [11] [s⁻¹] | kon [11] [M⁻¹ s⁻¹] | EC50 [12] [nM] | EC50 [13] [nM] | IL-2 release assay EC50 [14] [nM] | Reporter assay EC50 [14] [nM] | EC50 [15] [nM] | also measured
1 | AS19584VH28 sdAb-Fc (IgG4) fusion protein (Fc fusion, dimeric form, human IgG4 Fc; also called AS19584VH28 (IgG4); AS19584VH28 IgG4) EVQLVESGGGLVQPGGSLRLSCAASGYKYGVYSMGWFRQAPGKGLEGVSAICSGGRTTYSDSVKGRFTISRDNSNQILYLQMNSLRAEDTAVYYCAARPLWTGDCDLSSSWYKTWGQGTLVTVSS[human IgG4 Fc with S228P (EU numbers) not written out] | 4.06 | 1.1 | 0.68 |  |  |  |  |  |  |  |  |  |  |  |  |  |  |  |  |  | 
2 | AS19886VH5 sdAb-Fc (IgG1) fusion protein (Fc fusion, humanized sdAb fused to human IgG1 Fc, dimeric form; also called AS19886VH5-Fc) EVQLVESGGGLVQPGGSLRLSCAASGYTYSRKCRGWFRQAPGKGLEGVATLYTSSGGTYFDTYADSVRGRFTISRDNSKNTVYLQMNSLRAEDTGVYYCAARLSTDFCGPRADFDYWGQGTLVTVSS[human IgG1 Fc not written out] |  |  |  |  |  |  |  |  |  | 280 | 0.027 | 95000 | 2.9 | 0.0016 | 550000 | 2.82 | 2.06 | 3.15 | 3.54 | 0.657 | 
3 | AS19584VH28 sdAb-Fc (IgG1) fusion protein (Fc fusion, humanized sdAb fused to human IgG1 Fc, dimeric form; also called AS19584VH28-Fc; AS19584VH28 (IgG1)) EVQLVESGGGLVQPGGSLRLSCAASGYKYGVYSMGWFRQAPGKGLEGVSAICSGGRTTYSDSVKGRFTISRDNSNQILYLQMNSLRAEDTAVYYCAARPLWTGDCDLSSSWYKTWGQGTLVTVSS[human IgG1 Fc not written out] | 3.12 | 1 | 0.29 |  |  |  |  |  |  | 34 | 0.012 | 340000 | 0.29 | 0.00021 | 730000 | 1.65 | 1.02 | 0.818 | 2.12 | 0.432 | Kd [16]: 0.78 nM; koff [16]: 0.00049 s⁻¹; kon [16]: 620000 M⁻¹ s⁻¹

More lines, main results first:

Row | TIGIT Reporter assay EC50 [1] [nM] | Kd [2] [nM] | Kd [3] [nM] | EC50 [4] [nM] | TIGIT/CD155 blockade reporter assay, EC50 [5] [nM] | TIGIT/CD155 blockade reporter assay, Signal span [5] | Kd [6] [nM] | koff [6] [s⁻¹] | kon [6] [M⁻¹ s⁻¹] | Kd [10] [nM] | koff [10] [s⁻¹] | kon [10] [M⁻¹ s⁻¹] | Kd [11] [nM] | koff [11] [s⁻¹] | kon [11] [M⁻¹ s⁻¹] | EC50 [12] [nM] | EC50 [13] [nM] | IL-2 release assay EC50 [14] [nM] | Reporter assay EC50 [14] [nM] | EC50 [15] [nM] | Binder | also measured
4 |  |  |  | 0.876 | 5.46 | 88.8 | 200 | 0.025 | 130000 |  |  |  |  |  |  |  |  |  |  |  | AS20160 sdAb-Fc (IgG1) fusion protein (Fc fusion, dimeric form, human IgG1 Fc; also called AS20160-Fc; A520160-Fc) EVQLAESGGGSVQAGGSLRLSCTTSGYTYSRNCMGWFRQAPGKEREGVATIYVSAASTSFATYADSVKGRFTISLDKAKNTVYLQMNSLKPEDTAMYYCAADPPDRISNPCGPRRPDFGYWGQGTQVTVSS[human IgG1 Fc not written out] | Kd [7]: 2.7 nM; koff [7]: 0.0019 s⁻¹; kon [7]: 680000 M⁻¹ s⁻¹; EC50 [8]: 1.18 nM; EC50 [9]: 14.5 nM
5 |  |  |  | 0.34 | 3.04 | 102 | 82 | 0.016 | 190000 | 76 | 0.011 | 140000 | 2.6 | 0.0023 | 880000 | 2.38 | 1.35 | 2.64 | 3.16 | 0.541 | AS19886 sdAb-Fc (IgG1) fusion protein (Fc fusion, dimeric form, human IgG1 Fc; also called AS19886-Fc; A519886-Fc) QVQLVESGGGSVQAGGSLRLSCVASGYTYSRKCRGWFRQAPGKEREGVATLYTSSGGTYFDTYADSVRGRFTISQDNAKNTVYLQMNNLKPEDSGIYYCAARLSTDFCGPRADFDYWGQGTQVTVSS[human IgG1 Fc not written out] | Kd [7]: 1.9 nM; koff [7]: 0.0019 s⁻¹; kon [7]: 1e+06 M⁻¹ s⁻¹; EC50 [8]: 0.643 nM; EC50 [9]: 1.17 nM
6 |  |  |  |  |  |  |  |  |  | 160 | 0.023 | 140000 | 2.4 | 0.0017 | 730000 | 2.49 | 2.28 | 5.85 | 3.27 | 0.676 | AS19886VH8 sdAb-Fc (IgG1) fusion protein (Fc fusion, humanized sdAb fused to human IgG1 Fc, dimeric form; also called AS19886VH8-Fc) EVQLVESGGGLVQPGGSLRLSCAASGYTYSRKCRGWFRQAPGKGLEGVATLYTSSGGTYFDTYADSVRGRFTISQDNSKNTLYLQMNSLRAEDTAVYYCAARLSTDFCGPRADFDYWGQGTLVTVSS[human IgG1 Fc not written out] | 

Read-outs that look alike come from different tables or passages of the source.
